Source: publication PMC4336329 (PLoS ONE, 2015)
Screen size: about 310,000 compounds; about 14,000 (4.5%) showed an effect of 50% or more. The effect is printed as a negative number. This is one part of the list.

target: human ether-à-go-go-related gene (hERG) potassium channel (human, UniProt Q12809); assay: primary screen, population patch clamp on CHO cells stably expressing hERG
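Further: peak tail current of the secondary pulse compared with the same well before compound.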

human ether-à-go-go-related gene (hERG) potassium channel, sequence (Q12809 whole entry, looked up): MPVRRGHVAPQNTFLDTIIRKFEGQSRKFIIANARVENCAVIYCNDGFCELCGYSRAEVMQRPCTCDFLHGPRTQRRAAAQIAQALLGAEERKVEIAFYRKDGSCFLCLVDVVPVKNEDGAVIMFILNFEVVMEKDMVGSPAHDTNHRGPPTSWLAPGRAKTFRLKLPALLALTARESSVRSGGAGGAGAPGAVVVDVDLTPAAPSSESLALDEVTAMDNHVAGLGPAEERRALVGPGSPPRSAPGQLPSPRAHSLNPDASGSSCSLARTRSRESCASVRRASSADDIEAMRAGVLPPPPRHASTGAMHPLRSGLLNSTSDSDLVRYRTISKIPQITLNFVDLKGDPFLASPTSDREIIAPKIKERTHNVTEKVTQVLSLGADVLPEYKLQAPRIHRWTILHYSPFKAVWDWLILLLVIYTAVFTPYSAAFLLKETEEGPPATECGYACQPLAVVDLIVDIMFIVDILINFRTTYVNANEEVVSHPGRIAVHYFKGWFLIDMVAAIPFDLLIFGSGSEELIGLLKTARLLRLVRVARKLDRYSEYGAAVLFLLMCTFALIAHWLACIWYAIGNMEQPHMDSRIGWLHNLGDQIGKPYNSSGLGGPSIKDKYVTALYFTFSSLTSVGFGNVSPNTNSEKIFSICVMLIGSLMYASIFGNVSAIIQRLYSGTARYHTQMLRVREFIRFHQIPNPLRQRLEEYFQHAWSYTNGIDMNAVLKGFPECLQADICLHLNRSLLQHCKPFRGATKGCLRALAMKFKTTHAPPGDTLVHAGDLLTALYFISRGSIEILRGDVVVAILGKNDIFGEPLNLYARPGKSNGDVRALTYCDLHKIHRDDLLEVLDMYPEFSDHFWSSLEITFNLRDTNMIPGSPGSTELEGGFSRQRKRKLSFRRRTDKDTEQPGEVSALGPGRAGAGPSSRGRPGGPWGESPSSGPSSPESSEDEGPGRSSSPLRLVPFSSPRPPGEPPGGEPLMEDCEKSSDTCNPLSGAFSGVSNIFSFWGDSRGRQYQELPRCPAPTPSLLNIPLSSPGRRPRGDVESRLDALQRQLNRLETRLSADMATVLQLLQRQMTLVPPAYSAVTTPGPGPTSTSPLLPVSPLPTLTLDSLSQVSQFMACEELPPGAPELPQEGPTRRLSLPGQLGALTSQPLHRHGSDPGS

SMILES	hERG current change (%, negative = inhibition) at 10uM [%]
CCOC(=O)c1c(C)cc(C)[nH]c1=O	10.3
CCN(Cc1nc2cc(Cl)ccc2c(=O)[nH]1)C(=O)c1nn(C)c(=O)c2ccccc12	-21.4
Cc1nc(NC(=O)c2ccccc2)sc1C1(C)CC(c2ccc(OC(F)(F)F)cc2)=NO1 (stereo not shown)	9.56
Cc1[nH+]csc1CCOC(=O)c1cccc([N+](=O)[O-])c1.[Cl-]	-28.1
COc1cc(N=c2ssnc2Cl)cc(OC)c1OC	4.85
CC1(C)O[C@@H]2C[C@H]3[C@@H]4C[C@H](F)C5=CC(=O)C=C[C@]5(C)[C@@]4(F)[C@@H](O)C[C@]3(C)[C@]2(C(=O)CO)O1	7.13
CC(=O)Nc1cc2c(cc1NC(=O)Cn1nc(-c3ccc4c(c3)OCCO4)ccc1=O)OCCO2	9.36
CCOC(=O)Cn1nc(C)c(NC(=O)c2ccc(Br)o2)c1C	15
O=C(O)[C@H]1CCCC[C@H]1C(=O)Nc1ccc(S(=O)(=O)N2CCCCC2)cc1	-9.27
O=C(Nc1ccc2c(c1)OCCO2)c1ccco1	0.301
COc1ccc(/C(N)=N/OC(=O)c2cccc([N+](=O)[O-])c2C)cc1	-12.8
FC(F)(F)c1cnc(C(c2ccccn2)c2ncn[nH]2)c(Cl)c1 (stereo not shown)	20.7
Cc1ccc(S(=O)(=O)N2CCOCC2)cc1NC(=O)COC(=O)CNC(=O)c1ccc(C(C)(C)C)cc1	-3.31
COc1ccc(-c2nnc(SCC(=O)N3CCCc4ccccc43)o2)cc1OC	4.19
CC(=O)c1sc(NC(=O)CCCc2nc3ccccc3c(=O)[nH]2)nc1-c1ccccc1	-7.77
O=C(CCn1c(=S)[nH]c2ccccc2c1=O)NCCCN1CCOCC1	-5.65
CN(C)CCCNc1ccc(-c2n[nH]c(=O)c3ccccc23)cc1[N+](=O)[O-]	1.1
O=C(O)Cn1nnc(-c2ccc(OCc3ccccc3Cl)cc2)n1	25.1
CCOC(=O)C1=C(C)Nc2nc(C)nn2C1c1ccc(OCC)c(OC)c1 (stereo not shown)	9.79
Cc1ccc2c(c1)C=CC(C)(C)S2=O (stereo not shown)	19.1
CC(C)CC(=O)Nc1cc2nn(-c3ccccc3)nc2cc1Cl	2.83
Cc1cccc(CN2CCN(C(=O)CCl)CC2)c1	2.29

SMILES	hERG current change (%, negative = inhibition) at 10uM [%]
O=C(Nc1ccc(N2CCCCC2)cc1)c1cncc(Br)c1	8.69
COc1ccccc1CN(C)C(=O)C(c1ccccc1)c1ccccc1	-2.32
Cc1cnc(NC(=O)CSc2nnc(-c3ccc(Cl)cc3Cl)n2N)s1	-30.5
O=C(NCc1cccs1)C12CC3CC(CC(C3)C1)C2	15.6
COc1cccc(NC(=O)COC(=O)CCOc2ccccc2OC)c1	-3.21
Cc1ccc(NC(=O)c2ccc(N3CCCC3=O)cc2)cc1S(=O)(=O)N1CCCCC1	-3.33
CN(C)S(=O)(=O)c1ccc(NC(=O)Cn2ccsc2=N)cc1	13.7
COC(=O)C1CCN(S(=O)(=O)CCNC(=O)c2cccc(OC)c2)CC1	-3.28
C/C=C/C(=O)OCc1csc(CC(=O)Nc2ccccc2C)n1	0.285
c1ccc(COn2c(-c3ccccc3)nc3c2CCc2nonc2-3)cc1	18.3
O=C(NCc1ccncc1)C12CC3CC(CC(C3)C1)C2	0.119
Cc1ccc(NC(=O)c2sc3nc(N4CCOCC4)c4c(c3c2N)CC(C)(C)OC4)cc1	5.7
Cc1ccc(NS(=O)(=O)c2ccc(CCC(=O)NCCCOC(C)C)cc2)cc1	4.27
CCCOc1ccc(C2=NNC(=O)CC2)cc1	3.38
Cn1c(NC(=O)C[n+]2cc(-c3ccc(F)cc3)n3c2CCC3)cc(=O)n(C)c1=O.[Cl-]	1.04
O=C(CCn1cnc2ncccc2c1=O)N1CCN(c2cccc(Cl)c2)CC1	-20.8
CCOC(=O)c1c(C)[nH]c(C)c1C(=O)COC(=O)c1ccc(OC)c(OC)c1	-8.81
CC1CC1C(=O)OCC(=O)Nc1ccc2[nH]c(=O)[nH]c2c1 (stereo not shown)	2.94
C=CCC1(CC=C)CCCN1C(=O)C1CCC(=O)N(CCc2ccccc2)C1 (stereo not shown)	-12.5
COc1ccc(/C=C/C(=O)OCC(=O)NCc2ccco2)cc1OC	-72
O=C(NCC(c1cccnc1)N1CCN(c2ccc(F)cc2)CC1)c1ccco1 (stereo not shown)	-47.7
OCCC1CN(Cc2cccnc2)CCN1CCc1ccccc1 (stereo not shown)	-34.8

SMILES	hERG current change (%, negative = inhibition) at 10uM [%]
Cc1nnc(SCC(=O)Nc2cccc(Br)c2)s1	-19.4
Cc1ccc(S(=O)(=O)N(C)C)cc1-n1c(SCC(=O)Nc2ccc(F)cc2Cl)nc2ccccc2c1=O	0.00438
c1ccc(OCc2noc(CN3CC[C@@H]4CCCC[C@H]4C3)n2)cc1	0.704
CCN1CCN(C(=O)c2cc3sccc3n2CC(=O)c2ccccc2)CC1	-45.5
COc1ccc(Cl)cc1NC(=O)CN(C)C(=O)Cn1[nH]c(=O)c2ccccc2c1=O	-19.6
COc1ccc(-c2cccc(NC(=O)c3ccc4c(c3)OCO4)c2)nn1	17.4
CC(C)Cc1nc(N2CCN(C(=O)C(C)C)CC2)c(C#N)c2c1CCC2	-27.2
COc1cccc(C(=O)OCCNC(=O)c2cccnc2)c1.Cl	5.55
COc1ccccc1NC(=O)Cc1cccs1	-1.6
COC(=O)c1cc(S(=O)(=O)NCCCc2ccco2)c[nH]1	-7.89
COc1cccc(CN2CCN(Cc3cccc4nonc34)CC2CCO)c1 (stereo not shown)	-66.3
O=C(CNc1cc(S(=O)(=O)N2CCOCC2)ccc1N1CCCC1)N1CCc2ccccc21	6.91
OC1(c2ccc(Br)cc2)CCNCC1	-25.9
COC(=O)CC1Nc2ccccc2SC1=O (stereo not shown)	2.85
O=C(CC(SCCO)c1ccc([N+](=O)[O-])cc1)c1ccco1 (stereo not shown)	-35.7
Cc1cc(-c2ccccc2)nc(N(C)N)c1S(C)(=O)=O	-0.677
COCCNC(=O)C(c1ccccc1F)N(C(=O)C(=O)NC1CCCC1)C1CCCCC1 (stereo not shown)	-9.4
Cc1ccc(C2N(C)C(=O)c3ccccc3N2C)cc1 (stereo not shown)	4.3
CSCC(=O)Nc1ccc(F)c(Cl)c1	14.2
COc1ccc(N2CCN(CC(=O)Nc3sccc3C#N)CC2)cc1	-2.22
S=C(Nc1ccc2c(c1)OCO2)Nc1ccc2c(c1)OCO2	26.1
Cc1cccc(-c2nc3ccc(C(=O)N4CCC5(CC4)OCCO5)cc3nc2-c2cccc(C)c2)c1	17.5

SMILES	hERG current change (%, negative = inhibition) at 10uM [%]
COc1ccc(CCNC(=O)c2cn(C)c3ccc(S(=O)(=O)N4CCOCC4)cc3c2=O)cc1OC	7.91
CCN1C(=S)N[C@@H](c2cccc(F)c2)C(C(=O)OC)=C1C	-0.0118
Cc1oc(-c2cc3c(cc2Cl)OCO3)nc1CN1CCCC1c1ccc(F)cc1 (stereo not shown)	13.6
Cc1c(Cl)c(C(=O)NC2CCCC2)nn1C	-0.645
CCCCC(=O)NC(NC(=O)CCCC)c1ccc(OCC(C)C)c(OC)c1	3.81
Cc1c(Cl)cccc1N1C(=O)NC(=O)/C(=C\c2cc(C)n(-c3cccc(C(=O)O)c3C)c2C)C1=O	-11.8
O=[N+]([O-])c1ccc(CN2CCCCCC2)s1	-1.71
Cc1nn(C)c(C)c1CN(C)C(=O)C1c2ccccc2Oc2ccccc21	-8.4
COc1ccc(N2CC(C(=O)NC3CCSC3=O)CC2=O)cc1 (stereo not shown)	23.1
COc1cccc(C(=O)Nc2ccccc2N2CCCC2)c1	-5.43
C=C(C)c1cccc(C(C)(C)NC(=O)Nc2ncccn2)c1	-15.3
Cc1cc(/C=N/NC(N)=S)c(C)n1-c1ccc(Cl)c(Cl)c1	-4.28
Cc1ccc(O)c(-c2cc(-c3cccc(Br)c3)n[nH]2)c1	5.03
CN(C)c1ccc(/C=[N+](\[O-])C2SC(=S)N(C)C2(C)C)cc1 (stereo not shown)	0.163
Cn1c(=O)c(C(=O)CCl)c(N)n(Cc2ccccc2)c1=O	-0.976
COc1ccc(CCC(C)Nc2ccc(F)cc2)cc1 (stereo not shown)	-3.78
CCCN(CC(=O)Nc1ccccc1C)C(=O)c1ccc(N2CCCC2)c([N+](=O)[O-])c1	-41.3
Cn1c(=O)[nH]c(=O)c2c1nc(Br)n2CCOc1ccccc1	-3.7
O=C(Cc1cccs1)N1CCCC(c2nc3c(nnn3Cc3ccc(F)cc3)c(=O)[nH]2)C1 (stereo not shown)	-35.1
Cc1ccc(-n2nnnc2SCC(=O)N(CC(C)C)c2c(N)n(CC(C)C)c(=O)[nH]c2=O)cc1	1.14
CC1CCCCN1C(=O)CN1C(=O)CN(C)C(=O)c2ccccc21 (stereo not shown)	1.26
CC(NCCC(Cc1ccccc1)c1ccco1)c1ccccc1 (stereo not shown)	-22
